Measured values reported in PubChem BioAssay AID504832 (National Center for Advancing Translational Sciences (NCATS), 2011).
Out of some 310,000 compounds screened, about 18,000 (5.8%) were called active. This list was built around the results that the source calls inconclusive (neither active nor inactive); the mix of calls is not that of the screen. Calls come from the whole dose curve; as a rule, active = well fitted inhibition curve with a large enough effect; inconclusive = small, poorly fitted or top-dose-only effect, or another doubt; inactive = no such curve, though single readings can be large or run the other way. Potencies of inconclusive entries are left out as doubtful fits.

Assay: Primary qHTS for delayed death inhibitors of the malarial parasite plastid, 48 hour incubation
Conditions: P. falciparum luciferase growth in erythrocytes; series mostly up to 28.7 µM
How it was run: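 Here the parasites carry a stable luciferase gene and grow inside erythrocytes in Albumax-based RPMI medium with compound for one erythrocytic cycle. Activity is scored as loss of luminescent signal.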
% is set by controls: 0 for no effect and ±100 for the full control effect; potency is the fitted concentration of half-maximal effect; tags give direction and shape of the fitted curve.

| SMILES | Potency | activity change, negative = inhibition |
| --- | --- | --- |
| O=C(CNC(=O)c1ccccc1Cl)N/N=C/c1ccc([N+](=O)[O-])s1 | inconclusive [inhibitor, single point] |  |
| CCOC(=O)c1c[nH]c2c(C)cc(C)cc2c1=O | active: 5.22 µM |  |
| CC(=O)c1ccc(-n2ccc(=O)cc2)cc1 |  | inactive: 21.6% [at 0.00184 µM] |
| O=C(N/N=C/c1c(O)n(Cc2ccccc2)c(=O)c2ccccc12)c1cccnc1 | inconclusive [inhibitor, single point] |  |
| Cc1ccc(NC(=O)c2ccc3ccccc3n2)cc1S(=O)(=O)N1CCOCC1 | inconclusive [inhibitor, partial curve, poor fit] |  |
| Cc1ccccc1-c1ccc(Nc2ccc(N3CCOCC3)cc2)nn1 | inconclusive [inhibitor, single point] |  |
| CCn1cc(C(=O)NCCCN(C)c2ccccc2)c(=O)c2cc(S(=O)(=O)N(C)C)ccc21 | inconclusive [inhibitor, partial curve] |  |
| COc1cccc(C2c3[nH]c4ccccc4c3C[C@H]3C(=O)N(c4ccccc4C(=O)N4CCC[C@H]4C(=O)O)C(=O)N23)c1 (stereo partly drawn) | inconclusive [inhibitor, partial curve] |  |
| O=C(CSc1nnc(-c2ccncc2)n1-c1ccc(F)cc1)NNC(=O)c1cccc(O)c1 | inactive |  |
| CCOc1ccc(NC(=O)c2c(NC(=O)CN3CCN(C)CC3)sc3c2CCC3)cc1 | inconclusive [inhibitor, partial curve] |  |
| COc1ccc(OC)c(NS(=O)(=O)c2ccc(NC(=O)C3COc4ccccc4O3)cc2)c1 (stereo not drawn) | inconclusive [inhibitor, partial curve] |  |
| CC(C)(C)NS(=O)(=O)c1ccc(NC(=O)C(Sc2ccccc2)c2ccccc2)cc1 (stereo not drawn) | inconclusive [inhibitor, single point] |  |
| O=C(Nc1sc2c(c1C(=O)NCc1cccnc1)CCCC2)c1ccco1 | inconclusive [inhibitor, single point] |  |
| Cc1cc(N2CCCCC2)nc(SCC(=O)c2ccccc2)n1 | inactive |  |
| C/C(=N\Nc1c([N+](=O)[O-])c(C)nn1C)c1ccc(F)cc1F | inconclusive [inhibitor, single point] |  |
| Nc1ccc2c(c1)nc(Cc1ccccc1)n2CCO | inactive |  |
| CN1C(=O)/C(=C/c2ccccc2Cl)Sc2ccc(C(=O)N3CCCC3)cc21 | inconclusive [inhibitor, single point] |  |
| Cc1ccc(SCc2nc3ccccc3n2CC(=O)Nc2c(C)cccc2C)cc1 | inconclusive [inhibitor, single point] |  |
| O=C1CSC(=NC2CCCCC2)N1 | inactive |  |
| O=C1CCCc2c1[nH]c1c(Br)cccc21 | inactive |  |
| CCN1C(=O)C(CC(=O)Nc2ccc(OC)cc2)N(Cc2ccc(OC)c(OC)c2)C1=S (stereo not drawn) | active: 10.4 µM |  |
| CC1CCN(Cc2nc(-c3ccccc3)no2)CC1 | inactive |  |
| CN(Cc1ccccc1F)C(=O)C1CCCN(C(=O)c2ccc(Cl)cc2)C1 (stereo not drawn) | inconclusive [inhibitor, single point] |  |
| Cc1cc2cc3c(cc2nc1SCC(=O)N1c2ccccc2CC1C)OCO3 (stereo not drawn) | inconclusive [inhibitor, single point] |  |

| SMILES | Potency | activity change, negative = inhibition |
| --- | --- | --- |
| O=C(Cn1cc(C(=O)C2CC2)c2ccccc21)NCc1ccc2c(c1)OCO2 | inactive |  |
| O=C(CN1CCN(c2ccccn2)CC1)Nc1ccc(F)cc1F | inactive |  |
| CN1/C(=C\C(=O)c2cncc(Br)c2)C(C)(C)c2ccccc21 | inconclusive [inhibitor, single point] |  |
| COc1cc(C(=O)Nc2ccncc2)c([N+](=O)[O-])cc1OC | inconclusive [inhibitor, partial curve, poor fit] |  |
| COc1cc(/C=N/NC(=O)CSc2cc(C)c(Br)cc2C)ccc1O | inactive |  |
| CC(NC(=O)CSc1nc(C2CC2)n(-c2ccccc2)n1)c1ccco1 (stereo not drawn) | inconclusive [inhibitor, single point] |  |
| CC12CN3CCN(C1)CC(C)(C3)C2=NN | inconclusive [inhibitor, single point] |  |
| CCOc1ccc(CN2CCNC(=O)C2CC(=O)O)cc1 (stereo not drawn) | inactive |  |
| CCOc1ccc(/C=C2\SC(=S)N(CC(=O)Nc3ccccn3)C2=O)cc1 | inactive |  |
| N#CCCN(C(=S)NC(=O)c1ccco1)c1ccccc1F | inactive |  |
| Cc1cc(=O)n(C2CCS(=O)(=O)C2)[nH]1 (stereo not drawn) | inactive |  |
| CCn1c(NC(=O)C2CCCCC2)nc2ccccc21 | active: 10.4 µM |  |
| Cc1ccc2c(c1)oc(=O)n2CC(=O)c1ccccc1 | inactive |  |
| O=[N+]([O-])c1ccc(/C=[N+](\[O-])CCO)o1 | inconclusive [inhibitor, partial curve] |  |
| CCN(CC)c1nc2cc(OC)ccc2cc1C#N | inconclusive [inhibitor, single point] |  |
| Cc1nc(Cc2nnc(SC(C)C(=O)N3c4ccccc4NC(=O)C3(C)C)o2)cs1 (stereo not drawn) | inconclusive [inhibitor, single point] |  |
| OCCN1CCN(CCOc2ccccc2-c2ccccc2)CC1 | inactive |  |
| CCCC(C(=O)NC(C)(C)C)N(C(=O)c1snc(C(N)=O)c1N)c1ccc2c(c1)OCCO2 (stereo not drawn) | inactive |  |
| CCC1=C/C(=C/c2sc3ccccc3[n+]2CC)CC(C)(C)C1 | inconclusive [inhibitor, partial curve, poor fit] |  |
| Cc1ccc(NC(NC(=O)OCCn2c([N+](=O)[O-])cnc2C)C(Cl)(Cl)Cl)cc1 (stereo not drawn) | active: 5.22 µM |  |
| O=C(CN1CCOCCOCCOCCOCC1)Nc1ccccc1 | inactive |  |
| Cc1nc2sccn2c1P(c1c(C)nc2sccn12)c1c(C)nc2sccn12 | active: 8.28 µM |  |
| Cc1ccc(S(=O)(=O)N2CCOCC2)cc1C(=O)N1c2ccccc2Sc2ccccc21 | inconclusive [inhibitor, partial curve, poor fit] |  |
| Cc1noc(/C=C/c2ccco2)c1S(=O)(=O)N1CCC(C(=O)N(C)Cc2ccccc2)CC1 | active: 1.85 µM |  |
